The results in this text go back to a collection of fitness landscapes (doi:10.1126/science.1257360).

Some of the results follow.

To fix the notation:
B1: PhoQ; a variant is named by its letters at X, in order, P23837 (parent)
chain: MKKLLRLFFPLSLRVRFLLATAAVVLVLSLAYGMVALIGYSVSFDKTTFRLLRGESNLFYTLAKWENNKLHVELPENIDKQSPTMTLIYDENGQLLWAQRDVPWLMKMIQPDWLKSNGFHEIEADVNDTSLLLSGDHSIQQQLQEVREDDDDAEMTHSVAVNVYPATSRMPKLTIVVVDTIPVELKSSYMVWSWFIYVLSANLLLVIPLLWVAAWWSLRPIEALAKEVRELEEHNRELLNPATTRELTSLVRNLNRLLKSERERYDKYRTTLTDLTHSLKTPLXXLQXXLRSLRSEKMSVSDAEPVMLEQISRISQQIGYYLHRASMRGGTLLSRELHPVAPLLDNLTSALNKVYQRKGVNISLDISPEISFVGEQNDFVEVMGNVLDNACKYCLEFVEISARQTDEHLYIVVEDDGPGIPLSKREVIFDRGQRVDTLRPGQGVGLAVAREITEQYEGKIVAGESMLGGARMEVIFGRQHSAPKDE

The variants in this assay derive from B1. As to the kind of experiment: enrichment ratio after two sorts for PhoP signalling (ratio (wild type AVST 3.29)); higher = more functional. To be noted: with PhoP (E. coli).
Take LPLF: the enrichment ratio is at most 0.25. With SEAT the figure was 13.6; with RMRG, at most 0.25.

On to YSDS, for which the enrichment ratio was at most 0.25.

Turning to DKTV, the enrichment ratio is at most 0.25. Regarding PDEV, the enrichment ratio was at most 0.25.

In the case of WHMA, the enrichment ratio was at most 0.25. As for GDFR, the enrichment ratio is at most 0.25. With RHNY the figure was at most 0.25; with NSWY, at most 0.25. With EMFM the figure was at most 0.25; with AYVR, at most 0.25; with NFIL, at most 0.25. With PRDL the figure was at most 0.25; with AKRP, at most 0.25; with QFLW, at most 0.25. As for GQHI, the enrichment ratio is at most 0.25. Consider KSGN, for which the enrichment ratio was at most 0.25. On to MHYQ, for which the enrichment ratio is at most 0.25. With YYWW the figure was at most 0.25; with WYCG, at most 0.25; with MWYT, at most 0.25.

For VFKP, the enrichment ratio is at most 0.25. With NIVG the figure was at most 0.25; with FVRP, at most 0.25; with KSND, at most 0.25.

For SPNC, the enrichment ratio is at most 0.25.

As to ELHL, the enrichment ratio is at most 0.25. With KFNV the figure was 1.06; with PISM, at most 0.25; with YDPL, at most 0.25. With NWQV the figure was at most 0.25. Next, QNWL: at most 0.25; EDIE: at most 0.25. On to HFVM, for which the enrichment ratio is at most 0.25. With IYYA the figure was at most 0.25. With MRVG the figure was at most 0.25; with NRTV, at most 0.25. Next, VGQL: at most 0.25; LSAV: at most 0.25. Take YIVW: the enrichment ratio was at most 0.25.

As for VEMV, the enrichment ratio came out at 27.4. Next, RHYV: at most 0.25; GQHW: at most 0.25; LCAR: 0.326. Consider TQPR, for which the enrichment ratio was at most 0.25.

Regarding TPCF, the enrichment ratio was at most 0.25. With IWQH the figure was at most 0.25.

In the case of MAFT, the enrichment ratio is 2.38. With HYAI the figure was at most 0.25. Next, PIEP: at most 0.25. As for VKRM, the enrichment ratio was at most 0.25. On to PGIW, for which the enrichment ratio was at most 0.25. Next, RLLK: at most 0.25; QRRK: at most 0.25. Next, AGFN: at most 0.25; TFKE: at most 0.25. Next, MFNW: at most 0.25; KLMW: at most 0.25; HDDH: at most 0.25. KQDI: the enrichment ratio was at most 0.25. With RPVR, the enrichment ratio was at most 0.25. Next, LYQQ: 2.07; EMPT: at most 0.25; DCIV: at most 0.25.

For TNLP, the enrichment ratio was at most 0.25. With SISQ the figure was 8.99; with SRFL, at most 0.25; with QNML, at most 0.25. Next, MEIY: at most 0.25. In the case of TFLY, the enrichment ratio was at most 0.25.

On to LCHN, for which the enrichment ratio was 0.447. With RHHQ the figure was at most 0.25; with KKYI, at most 0.25. Consider VMMQ, for which the enrichment ratio is at most 0.25. With LICE the figure was at most 0.25. Next, QFIM: at most 0.25; PIYF: at most 0.25; ESYP: at most 0.25.

For ARIT, the enrichment ratio is at most 0.25.

For GGPA, the enrichment ratio is at most 0.25. With WQMS the figure was at most 0.25; with PDCY, at most 0.25. For the variant AMLM, the enrichment ratio came to 8.51. With WSYQ the figure was at most 0.25. TWSI: the enrichment ratio is at most 0.25. As to CTIM, the enrichment ratio was at most 0.25. Take SQLN: the enrichment ratio is 9.86. Next, PAEA: at most 0.25; GGRP: at most 0.25. Next, MAFF: 3.53; WCPY: at most 0.25; DAPF: at most 0.25.

Regarding MYYK, the enrichment ratio is at most 0.25. Take AFSE: the enrichment ratio was at most 0.25. With WHDS the figure was at most 0.25; with HAIP, at most 0.25; with TDMY, 6.89. Next, TPGA: at most 0.25. PSIT: the enrichment ratio was at most 0.25. Next, YMSD: at most 0.25. Regarding RGIM, the enrichment ratio is at most 0.25. With EPVQ the figure was at most 0.25. Next, ETRI: at most 0.25; KPMP: at most 0.25. Next, PEVK: at most 0.25; PMCS: at most 0.25; PPGQ: at most 0.25. Take WFIW: the enrichment ratio is at most 0.25. Next, MSPP: at most 0.25; HGSE: at most 0.25. With PFDN the figure was at most 0.25. With PKSA the figure was at most 0.25; with TTMM, 8.23; with AWIP, at most 0.25.

On to LQVP, for which the enrichment ratio is at most 0.25. Next, TVFC: at most 0.25; ASAT: 10.1; LDCH: at most 0.25. Next, VELR: at most 0.25.

For the variant KGNC, the enrichment ratio was at most 0.25.

Turning to ENKV, the enrichment ratio is at most 0.25. With PMYK the figure was at most 0.25; with RVQS, at most 0.25. Turning to STEY, the enrichment ratio is at most 0.25.

With FRHA, the enrichment ratio was at most 0.25. Next, ANKH: at most 0.25.

With HGFC, the enrichment ratio is at most 0.25. Next, GYMQ: at most 0.25. Next, LQFI: at most 0.25. With FHIC the figure was at most 0.25; with TWRN, at most 0.25. In the case of SHNC, the enrichment ratio was 0.752. Next, NVPC: at most 0.25; TNEF: at most 0.25; PYIV: at most 0.25. Take APQY: the enrichment ratio is at most 0.25. With VPFR the figure was at most 0.25; with ADMP, at most 0.25. Next, WEIN: at most 0.25; WDKL: at most 0.25; WSCT: at most 0.25. With EFWH the figure was at most 0.25; with DWDP, at most 0.25. As to QFVQ, the enrichment ratio is at most 0.25. With FWYH the figure was at most 0.25.

For VMGV, the enrichment ratio is at most 0.25.

Take LNNH: the enrichment ratio is at most 0.25. Regarding FWNK, the enrichment ratio was at most 0.25. On to SFMI, for which the enrichment ratio is at most 0.25.

Turning to RCYA, the enrichment ratio is at most 0.25. Next, SLGC: 0.319; GIIA: 4.87; VFGM: at most 0.25.

HDKE: the enrichment ratio was at most 0.25. As to FRQS, the enrichment ratio is at most 0.25.

With SLMN, the enrichment ratio was 9.38. Next, TCWN: 14.9. Next, KMSH: at most 0.25; ANRI: at most 0.25. With LAPA the figure was at most 0.25. Consider ISLT, for which the enrichment ratio was 0.863. With APTI the figure was at most 0.25. With HYML the figure was at most 0.25; with HCNR, at most 0.25. Consider IMEL, for which the enrichment ratio is at most 0.25. ANNT: the enrichment ratio was at most 0.25. Next, WSDA: at most 0.25; TEEA: at most 0.25; DRRM: at most 0.25. Next, YGDL: at most 0.25. Next, HQCA: at most 0.25; PPNK: at most 0.25. Regarding VPTP, the enrichment ratio was at most 0.25.

Consider FKPI, for which the enrichment ratio was at most 0.25.

As for QHDS, the enrichment ratio came to 29.2. Next, QCSM: 3.85; FATF: 0.319. On to IVDR, for which the enrichment ratio was at most 0.25. Next, GSMF: 2.22; HNEL: at most 0.25. With DKIL the figure was at most 0.25; with VYYC, at most 0.25; with SECF, 13.9. Take HKWS: the enrichment ratio was at most 0.25.

As for EIEW, the enrichment ratio is at most 0.25. With LDLT the figure was at most 0.25. Next, ILGS: at most 0.25; RPWD: at most 0.25; TVRR: at most 0.25.

Regarding TAST, the enrichment ratio came out at 10.8. With RFNT the figure was at most 0.25.

ECWY: the enrichment ratio is at most 0.25. Next, RNWL: at most 0.25. With TLRW the figure was at most 0.25.
